About 14,000 (4.5%) of roughly 310,000 compounds showed an effect of 50% or more. Effects have a minus sign here. The list shows a part of the results.
molecular target: human ether-à-go-go-related gene (hERG) potassium channel (human, UniProt Q12809); experiment: primary screen, population patch clamp on CHO cells stably expressing hERG
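Also: peak tail current of the secondary pulse compared with the same well before compound.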

Chain of human ether-à-go-go-related gene (hERG) potassium channel (Q12809 whole entry, looked up): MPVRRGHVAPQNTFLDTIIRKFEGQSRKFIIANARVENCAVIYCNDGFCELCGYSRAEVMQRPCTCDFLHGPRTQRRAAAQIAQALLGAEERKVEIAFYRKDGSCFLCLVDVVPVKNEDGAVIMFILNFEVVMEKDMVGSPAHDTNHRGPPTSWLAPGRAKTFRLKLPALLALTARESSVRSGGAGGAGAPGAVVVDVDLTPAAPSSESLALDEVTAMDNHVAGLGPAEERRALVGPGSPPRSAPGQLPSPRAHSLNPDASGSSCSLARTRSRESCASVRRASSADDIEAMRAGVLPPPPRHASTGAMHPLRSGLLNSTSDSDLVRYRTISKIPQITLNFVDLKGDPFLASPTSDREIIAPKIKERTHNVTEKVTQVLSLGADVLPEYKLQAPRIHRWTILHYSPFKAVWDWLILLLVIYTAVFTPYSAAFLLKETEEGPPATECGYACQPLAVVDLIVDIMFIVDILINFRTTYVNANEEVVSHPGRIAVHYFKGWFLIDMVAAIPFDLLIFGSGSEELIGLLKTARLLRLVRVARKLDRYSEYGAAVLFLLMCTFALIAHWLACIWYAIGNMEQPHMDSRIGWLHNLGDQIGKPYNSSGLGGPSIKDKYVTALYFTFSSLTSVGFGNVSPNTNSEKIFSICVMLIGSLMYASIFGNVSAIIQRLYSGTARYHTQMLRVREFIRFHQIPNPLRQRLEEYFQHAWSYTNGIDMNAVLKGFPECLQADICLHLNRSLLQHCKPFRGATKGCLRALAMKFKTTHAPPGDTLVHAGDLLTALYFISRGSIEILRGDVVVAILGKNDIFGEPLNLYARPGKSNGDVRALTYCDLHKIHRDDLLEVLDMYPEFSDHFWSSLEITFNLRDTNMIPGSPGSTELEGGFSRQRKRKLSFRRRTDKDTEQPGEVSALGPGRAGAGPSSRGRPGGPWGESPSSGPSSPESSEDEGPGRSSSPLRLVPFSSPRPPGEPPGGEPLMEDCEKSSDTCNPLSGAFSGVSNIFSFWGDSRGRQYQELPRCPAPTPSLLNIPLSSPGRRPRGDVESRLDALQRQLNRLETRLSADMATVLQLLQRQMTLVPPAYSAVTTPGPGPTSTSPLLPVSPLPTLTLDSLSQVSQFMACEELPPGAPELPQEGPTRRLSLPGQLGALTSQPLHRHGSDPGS

Row | SMILES | hERG current change (%, negative = inhibition) at 10uM
1 | COc1ccc(Cl)cc1S(=O)(=O)N1CCN(CC(=O)C(C)(C)C)CC1 | 7.45%
2 | CCOC(=O)C(O)(c1cn(C)c2ccccc12)C(F)(F)F (stereo not shown) | 12.3%
3 | Cc1ccc(/C(O)=C2/C(=O)C(=O)N(CCN3CCOCC3)C2c2ccccn2)cc1 (stereo not shown) | 18.9%
4 | CC(=O)c1ccc2c3c(cccc13)C(=O)N(c1c(C)nn(C)c1C)C2=O | 12.9%
5 | CCOC(=O)c1c(C)[nH]c(C)c1C(=O)COc1ccc(NC(=O)c2ccco2)cc1 | 2.97%
6 | CC(=O)NCCNC(=O)c1ccc(CSc2ccc(Cl)cc2)cc1 | -2.38%
7 | COc1cc(NS(=O)(=O)c2ccc3c(c2)n(C)c(=O)n3C)cc(OC)c1 | 7.15%
8 | CC(=O)N1CCN(CC(=O)NC(=O)Nc2ccc3c(c2)OCCO3)CC1 | 3.58%
9 | CC(C)(C)c1ccc(C(=O)NCC(=O)OCc2ccc([N+](=O)[O-])cc2)cc1 | -7.46%
10 | C#CCOCCOCCOCCNc1nc(N2CCN(C(=O)[C@H]([C@@H](C)O)n3cc(CCCC[NH3+])nn3)CC2)nc(N2CCN(C(=O)[C@H](CCCC[NH3+])n3cc(CCCC)nn3)CC2)n1.[Cl-] | 14.1%
11 | CC(=O)c1cc2c(cc1N/C(=N/S(=O)(=O)c1ccc(C)cc1)c1ccccc1)OCO2 | 1.67%
12 | O=C(Nc1ccc(F)cc1)C(c1ccccc1)N1CCN(CC(=O)N2CCCC2)CC1 (stereo not shown) | -65.3%
13 | CCOC(=O)c1ccc(N2CC(O)=C(c3nc4ccccc4c(=O)[nH]3)C2=N)cc1 | -5.62%
14 | N=c1c2c(ncn1CCN1CCOCC1)Oc1cc(O)ccc1C2c1ccccc1 (stereo not shown) | -42.9%
15 | CCCN1CCN(S(=O)(=O)c2ccc3c(c2)CC(C)N3C(=O)C2CC2)CC1 (stereo not shown) | 14.8%
16 | CCOC(=O)C1=C(C)NC(=O)NC1c1ccco1 (stereo not shown) | 9.99%
17 | NS(=O)(=O)c1cccc(NC(=O)c2cccs2)c1 | 18.4%
18 | Cc1nc2ccccn2c1C(=O)CSc1ccccc1Cl | -19.5%
19 | CCCc1cc(C(=O)Nc2cc(C)nn2-c2ccccc2)no1 | -0.636%
20 | Cc1oc2ccc(O)cc2c1C(=O)c1ccc(F)cc1 | 4.15%
21 | O=C(COc1ccc(Cl)cc1)NNC(=O)c1ccc2c(=O)n3c(nc2c1)CCC3 | -48.7%
22 | O=C(Nc1ccc(-n2cnnn2)cc1)C(c1ccccc1)c1ccccc1 | 8.56%

Row | SMILES | hERG current change (%, negative = inhibition) at 10uM
23 | Cc1ccc(-n2nnnc2SCC(=O)N2CCN(C(=O)c3ccco3)CC2)c(C)c1 | -76%
24 | CCC(C)C(=O)NCCc1ccc(S(N)(=O)=O)cc1 (stereo not shown) | 3.41%
25 | COC(=O)[C@@H](NC(=O)Nc1cccc(OC)c1)C(C)C | -13.4%
26 | O=C(CSCCc1ccccn1)Nc1ccccn1 | 11.6%
27 | Cc1ccc(NC(=O)C2CCN(S(=O)(=O)c3ccc(N4CCCC4=O)cc3)CC2)cc1Cl | -0.121%
28 | O=C(O)c1ccc2c(=O)n3c(nc2c1)/C(=C/c1ccc(Cl)cc1Cl)CC3 | 0.363%
29 | CN(C)CCNC(=O)c1ccc(COCC(F)(F)F)cc1 | -12.7%
30 | CCCCn1cnc2cc(NCc3ccncc3)ccc21 | -1.31%
31 | CC(=O)c1ccc2noc(-c3ccc(Cl)cc3)c2c1 | 2.26%
32 | CCN1C(=O)N[C@@H](c2ccco2)C(C(=O)OC)=C1C | 6.79%
33 | Cc1cccc(-n2c(SCC(=O)NCC3CCCO3)nc3ccccc3c2=O)c1C (stereo not shown) | 0.08%
34 | CC1(C)CC(=O)C(C=NCCN2CCN(C(=O)Cc3ccc(Cl)cc3)CC2)=C(O)C1 | -62%
35 | CCOC(=O)CC1C(=O)NCCN1C(=O)NC1CCCCC1 (stereo not shown) | 4.54%
36 | CCOC(=O)C1CCN(C/C=C/c2ccccc2OC)CC1 | -20.5%
37 | COc1ccc(Cn2c(-c3ccco3)nc3oc4cc(OC)ccc4c(=O)c3c2=O)cc1 | -31.4%
38 | CCOc1cc(/C=C2/C(=O)NN(c3cccc(Cl)c3)C2=O)ccc1O | 11.7%
39 | Cn1ccnc1CC(O)(c1ccccc1)c1ccccc1 | -7.49%
40 | CC(C)CC1NC(=O)c2ccccc2-n2c1nc1cc(F)ccc1c2=O (stereo not shown) | -15%
41 | CC(C)OCCCNC(=O)c1cc(S(=O)(=O)N2CCCCC2)c[nH]1 | -5.43%
42 | O=C(NCc1ccncc1)Nc1ccc(F)cc1 | 17.2%
43 | CCc1ccccc1NC(=O)N[C@H](C(=O)O)C(C)CC (stereo partly shown) | -3.02%
44 | CC(=C\c1ccccc1)/C=C1/SC(=S)N(CCC(=O)O)C1=O | 4.16%

Row | SMILES | hERG current change (%, negative = inhibition) at 10uM
45 | CN(C(=O)c1ccc(S(=O)(=O)NC2CCCC2)cc1)C1CCCCC1 | -12.8%
46 | CCc1ccc2nc(N)sc2c1 | 18.7%
47 | CC(C)Oc1ccc(C(CC(=O)N(C)CCC#N)c2ccc(F)cc2)cc1 (stereo not shown) | -59.2%
48 | C/C(=N\NS(=O)(=O)c1ccc(Cl)c([N+](=O)[O-])c1)c1cc2ccccc2o1 | 6.01%
49 | Cn1nccc1C(=O)Nc1sc2c(c1C(N)=O)CCCC2 | -7.97%
50 | C=CCOC(=O)C1=C(C)NC(SCC(=O)Nc2ccccc2)=C(C#N)C1c1ccco1 (stereo not shown) | -15.1%
51 | CS(=O)(=O)N(CC(=O)NC1CCCC1)Cc1ccc(Cl)cc1 | -14.5%
52 | CCOC(=O)CS(=O)(=O)c1nc(-c2ccccc2)cc(C(F)(F)F)n1 | -26.6%
53 | Cc1ccc(C(=O)Nc2cccc(S(=O)(=O)N(C)c3ccccc3)c2)o1 | -31.3%
54 | Cn1nc2sc3ccccc3n2c(=O)c1=O | 18%
55 | CC1=C/C(=N\Nc2ccccc2[N+](=O)[O-])CC(C)(C)C1 | 7.91%
56 | CCn1c2ccc(C)cc2c2nnc(SCCN3CCOCC3)nc21 | -13.8%
57 | Fc1ccccc1CNc1ncnc2sccc12 | 11.9%
58 | O/N=C/c1cc(Cl)ccc1OCc1cccc2ccccc12 | -3.04%
59 | Cn1c(=O)n(Cc2ccc(F)cc2)c(=O)c2c1nc1n2CCCN1C1CCCCC1 | -4.76%
60 | COC(=O)CCC(=O)Nc1cccc([N+](=O)[O-])c1 | 5.87%
61 | CSCCC(NC(=O)c1ccco1)C(=O)NCC(C)(C)N1CCOCC1 (stereo not shown) | -1.09%
62 | Cc1ccc(NC(=O)COC(=O)C2=COCCO2)c([N+](=O)[O-])c1 | 42%
63 | COc1cccc(-n2c(Cn3nc(C(F)(F)F)cc3C)n[nH]c2=S)c1 | 10.7%
64 | CC1(C)CC(NC(=O)c2cccc(S(=O)(=O)Nc3cccc(Cl)c3)c2)CC(C)(C)N1 | 2.63%
65 | COc1cc(-c2nnc3sc(-c4ccco4)nn23)cc(OC)c1OC | 2.94%
66 | CCCCOc1ccc(/C(N)=N/O)cc1 | -0.207%

Row | SMILES | hERG current change (%, negative = inhibition) at 10uM
67 | CCOc1ccc(NC(=O)c2c(NC(=O)CN3CCN(C)CC3)sc3c2CCC3)cc1 | -72.7%
68 | O=C(CSc1ccccc1)NC1CCCCCC1 | 2.02%
69 | Cc1cc(C(=O)Nc2ccc(N3CCCC3)c(Cl)c2)ccc1[N+](=O)[O-] | 14.3%
70 | CCCCN(C(=O)CC1OC(=O)c2ccccc21)c1c(N)n(CCCC)c(=O)[nH]c1=O (stereo not shown) | 6.29%
71 | COc1cc(OC)cc(C(=O)Nn2cc(C(=O)Nc3ccccc3F)c3ccccc3c2=O)c1 | -2.36%
72 | Cc1ccc(C(=O)CN(C(=O)c2ccc(Cl)c(Cl)c2)N2C(=O)C3C4C=CC(C4)C3C2=O)cc1 (stereo not shown) | 11.3%
73 | O=C(Nc1ccnn1C1CCN(Cc2cccc(O)c2)CC1)C1CCCC1 | -36.5%
74 | O=C(COC(=O)CCc1ccc(S(=O)(=O)N2CCOCC2)cc1)NC(=O)NC1CCCCC1 | 3.67%
75 | CSc1cccc(NC(=S)Nc2ccc(F)cc2)c1 | 6.95%
76 | COc1ccccc1CNS(=O)(=O)c1ccc2c(c1)N(C(C)=O)CC(C)S2 (stereo not shown) | 2.13%
77 | Cn1nc(C(=O)NCc2ccccn2)c2ccccc2c1=O | -5.23%
78 | CCOc1ccc(C(=O)NCC(=O)NCC(c2cccs2)N2CCOCC2)cc1 (stereo not shown) | 4.69%
79 | CCN(CC)C1=NC=CC(c2ccccc2)=CC1C (stereo not shown) | -55.1%
80 | CCOC(=O)N1CCN(C(=O)c2ccc(C)c(S(=O)(=O)Nc3ccccc3)c2)CC1 | 5.43%
81 | O=C(Nc1ccc(S(=O)(=O)N2CCCCC2)cc1)c1cccnc1Cl | 6.43%
82 | O=C(c1ccccc1)N1CCN(Cc2c[nH]c3ccccc23)CC1 | -16.4%
83 | O=C1CCCN1CCCNc1ncnc2sccc12 | 3.29%
84 | CCOC(=O)N1CCN(CC(=O)c2ccc3c(c2)CCN3C(C)=O)CC1 | 8.95%
85 | C=CCn1c(Cc2cccs2)nnc1SCC(=O)Nc1ccc(C(=O)OCC)cc1 | -15.2%
86 | CSCCC(NS(=O)(=O)c1ccc(C)c(C(=O)O)c1)C(=O)O (stereo not shown) | 30.3%
87 | CCc1nccn1CCC(=O)NC1CC(C)(C)Cc2c1cnn2-c1ccc(C)cc1 (stereo not shown) | -22.1%
88 | COC(=O)CN1C(=O)N/C(=C/c2ccc(OC)cc2)C1=O | 6.05%
